{"source": "paper PMC9911399", "about": "“Two distinct binding modes provide the RNA-binding protein RbFox with extraordinary sequence specificity”", "binders": {"B1": {"name": "GCGCACC (DNA:RNA)", "RNA": "GGGAGACCGGAAUUCAGAUUGUCCGCGCACCUUAAAUCCCGUCGUAGCCACCA", "DNA 1": "CAATCTGAATTCCGGTCTCCC", "DNA 2": "TGGTGGCTACGACGGGATT"}, "B2": {"name": "AAUCAGG (DNA:RNA)", "RNA": "B1 RNA with G25A, C26A, G27U, C30G, C31G", "DNA 1": "CAATCTGAATTCCGGTCTCCC", "DNA 2": "TGGTGGCTACGACGGGATT"}, "B3": {"name": "CGACCCC (DNA:RNA)", "RNA": "B1 RNA with G25C, C26G, G27A, A29C", "DNA 1": "CAATCTGAATTCCGGTCTCCC", "DNA 2": "TGGTGGCTACGACGGGATT"}, "B4": {"name": "ACAAGGA (DNA:RNA)", "RNA": "B1 RNA with G25A, G27A, C28A, A29G, C30G, C31A", "DNA 1": "CAATCTGAATTCCGGTCTCCC", "DNA 2": "TGGTGGCTACGACGGGATT"}, "B5": {"name": "UGAAGCU (DNA:RNA)", "RNA": "B1 RNA with G25U, C26G, G27A, C28A, A29G, C31U", "DNA 1": "CAATCTGAATTCCGGTCTCCC", "DNA 2": "TGGTGGCTACGACGGGATT"}, "B6": {"name": "UAGACUG (DNA:RNA)", "RNA": "B1 RNA with G25U, C26A, C28A, A29C, C30U, C31G", "DNA 1": "CAATCTGAATTCCGGTCTCCC", "DNA 2": "TGGTGGCTACGACGGGATT"}, "B7": {"name": "CCGCUUC (DNA:RNA)", "RNA": "B1 RNA with G25C, A29U, C30U", "DNA 1": "CAATCTGAATTCCGGTCTCCC", "DNA 2": "TGGTGGCTACGACGGGATT"}, "B8": {"name": "CUCUAGG (DNA:RNA)", "RNA": "B1 RNA with G25C, C26U, G27C, C28U, C30G, C31G", "DNA 1": "CAATCTGAATTCCGGTCTCCC", "DNA 2": "TGGTGGCTACGACGGGATT"}, "B9": {"name": "ACCGCAA (DNA:RNA)", "RNA": "B1 RNA with G25A, G27C, C28G, A29C, C30A, C31A", "DNA 1": "CAATCTGAATTCCGGTCTCCC", "DNA 2": "TGGTGGCTACGACGGGATT"}, "B10": {"name": "UCCCGGU (DNA:RNA)", "RNA": "B1 RNA with G25U, G27C, A29G, C30G, C31U", "DNA 1": "CAATCTGAATTCCGGTCTCCC", "DNA 2": "TGGTGGCTACGACGGGATT"}, "B11": {"name": "UACCGGC (DNA:RNA)", "RNA": "B1 RNA with G25U, C26A, G27C, A29G, C30G", "DNA 1": "CAATCTGAATTCCGGTCTCCC", "DNA 2": "TGGTGGCTACGACGGGATT"}, "B12": {"name": "GCCCGGC (DNA:RNA)", "RNA": "B1 RNA with G27C, A29G, C30G", "DNA 1": "CAATCTGAATTCCGGTCTCCC", "DNA 2": "TGGTGGCTACGACGGGATT"}, "B13": {"name": "UCCUUCC (DNA:RNA)", "RNA": "B1 RNA with G25U, G27C, C28U, A29U", "DNA 1": "CAATCTGAATTCCGGTCTCCC", "DNA 2": "TGGTGGCTACGACGGGATT"}, "B14": {"name": "CCUGAUA (DNA:RNA)", "RNA": "B1 RNA with G25C, G27U, C28G, C30U, C31A", "DNA 1": "CAATCTGAATTCCGGTCTCCC", "DNA 2": "TGGTGGCTACGACGGGATT"}, "B15": {"name": "AUUUCGA (DNA:RNA)", "RNA": "GGGAGACCGGAAUUCAGAUUGUCCAUUUCGAUUAAAUCCCGUCGUAGCCACCA", "DNA 1": "CAATCTGAATTCCGGTCTCCC", "DNA 2": "TGGTGGCTACGACGGGATT"}, "B16": {"name": "CCCAACA (DNA:RNA)", "RNA": "B1 RNA with G25C, G27C, C28A, C31A", "DNA 1": "CAATCTGAATTCCGGTCTCCC", "DNA 2": "TGGTGGCTACGACGGGATT"}, "B17": {"name": "UUUCGUC (DNA:RNA)", "RNA": "B15 RNA with A25U, U28C, C29G, G30U, A31C", "DNA 1": "CAATCTGAATTCCGGTCTCCC", "DNA 2": "TGGTGGCTACGACGGGATT"}, "B18": {"name": "GGAAGAU (DNA:RNA)", "RNA": "B1 RNA with C26G, G27A, C28A, A29G, C30A, C31U", "DNA 1": "CAATCTGAATTCCGGTCTCCC", "DNA 2": "TGGTGGCTACGACGGGATT"}, "B19": {"name": "UAUACGC (DNA:RNA)", "RNA": "B15 RNA with A25U, U26A, U28A, A31C", "DNA 1": "CAATCTGAATTCCGGTCTCCC", "DNA 2": "TGGTGGCTACGACGGGATT"}, "B20": {"name": "AGAACCU (DNA:RNA)", "RNA": "B15 RNA with U26G, U27A, U28A, G30C, A31U", "DNA 1": "CAATCTGAATTCCGGTCTCCC", "DNA 2": "TGGTGGCTACGACGGGATT"}, "B21": {"name": "CCAAUAA (DNA:RNA)", "RNA": "B15 RNA with A25C, U26C, U27A, U28A, C29U, G30A", "DNA 1": "CAATCTGAATTCCGGTCTCCC", "DNA 2": "TGGTGGCTACGACGGGATT"}, "B22": {"name": "UAUUGAG (DNA:RNA)", "RNA": "B15 RNA with A25U, U26A, C29G, G30A, A31G", "DNA 1": "CAATCTGAATTCCGGTCTCCC", "DNA 2": "TGGTGGCTACGACGGGATT"}, "B23": {"name": "GAGCAUC (DNA:RNA)", "RNA": "B1 RNA with C26A, C30U", "DNA 1": "CAATCTGAATTCCGGTCTCCC", "DNA 2": "TGGTGGCTACGACGGGATT"}, "B24": {"name": "UAACUCA (DNA:RNA)", "RNA": "B1 RNA with G25U, C26A, G27A, A29U, C31A", "DNA 1": "CAATCTGAATTCCGGTCTCCC", "DNA 2": "TGGTGGCTACGACGGGATT"}, "B25": {"name": "UUUCAUA (DNA:RNA)", "RNA": "B15 RNA with A25U, U28C, C29A, G30U", "DNA 1": "CAATCTGAATTCCGGTCTCCC", "DNA 2": "TGGTGGCTACGACGGGATT"}, "B26": {"name": "AACAACA (DNA:RNA)", "RNA": "B15 RNA with U26A, U27C, U28A, C29A, G30C", "DNA 1": "CAATCTGAATTCCGGTCTCCC", "DNA 2": "TGGTGGCTACGACGGGATT"}, "B27": {"name": "ACAGACU (DNA:RNA)", "RNA": "B1 RNA with G25A, G27A, C28G, C31U", "DNA 1": "CAATCTGAATTCCGGTCTCCC", "DNA 2": "TGGTGGCTACGACGGGATT"}, "B28": {"name": "GCUUGAC (DNA:RNA)", "RNA": "B1 RNA with G27U, C28U, A29G, C30A", "DNA 1": "CAATCTGAATTCCGGTCTCCC", "DNA 2": "TGGTGGCTACGACGGGATT"}, "B29": {"name": "CACUAUC (DNA:RNA)", "RNA": "B1 RNA with G25C, C26A, G27C, C28U, C30U", "DNA 1": "CAATCTGAATTCCGGTCTCCC", "DNA 2": "TGGTGGCTACGACGGGATT"}, "B30": {"name": "ACCUCCC (DNA:RNA)", "RNA": "B15 RNA with U26C, U27C, G30C, A31C", "DNA 1": "CAATCTGAATTCCGGTCTCCC", "DNA 2": "TGGTGGCTACGACGGGATT"}, "B31": {"name": "ACUAGCA (DNA:RNA)", "RNA": "B15 RNA with U26C, U28A, C29G, G30C", "DNA 1": "CAATCTGAATTCCGGTCTCCC", "DNA 2": "TGGTGGCTACGACGGGATT"}}, "note": "Changes are numbered by the printed parent chain; changes in the protein carry UniProt numbers. The list shows a part of the results.", "data": [{"target": "T1, RBFOX1 RRM RbFoxmut (Fox-RRM*) (Homo sapiens, UniProt Q9NWB1 109-208, R118D;E147R;N151S;E152T)", "T1 sequence": "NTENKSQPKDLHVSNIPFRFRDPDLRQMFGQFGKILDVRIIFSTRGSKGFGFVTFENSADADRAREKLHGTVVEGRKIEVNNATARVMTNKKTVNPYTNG", "test": "EMSA; HiTS-Eq, 1 nM pool, 10 min; buffer printed only for the single-RNA assays: 10 mM Tris pH 7.5, 150 mM NaCl, 3.4 mM EDTA, 0.001% NP-40, 30 C", "conditions": "tags: His6 N-terminal (pET28a); label: 5' 32P", "in_short": "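Purified wild-type or mutant RbFox RRM at increasing concentrations was equilibrated with 1 nM of 5′-radiolabelled RNA carrying 7 randomized nucleotides for 10 min in 50 µL. Unbound RNA was separated by 8% native PAGE and sequenced. Relative association constants came from read-count changes of each RNA species compared with the control reaction, normalised to the cognate motif.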", "values": [{"binder": "B1", "binding signal": "0.128 KA relative to UGCAUGU"}, {"binder": "B2", "binding signal": "0.0974 KA relative to UGCAUGU"}, {"binder": "B3", "binding signal": "0.0694 KA relative to UGCAUGU"}, {"binder": "B4", "binding signal": "0.0551 KA relative to UGCAUGU"}, {"binder": "B5", "binding signal": "0.0586 KA relative to UGCAUGU"}, {"binder": "B6", "binding signal": "0.14 KA relative to UGCAUGU"}, {"binder": "B7", "binding signal": "0.106 KA relative to UGCAUGU"}, {"binder": "B8", "binding signal": "0.106 KA relative to UGCAUGU"}, {"binder": "B9", "binding signal": "0.0662 KA relative to UGCAUGU"}, {"binder": "B10", "binding signal": "0.0883 KA relative to UGCAUGU"}, {"binder": "B11", "binding signal": "0.0785 KA relative to UGCAUGU"}, {"binder": "B12", "binding signal": "0.0972 KA relative to UGCAUGU"}, {"binder": "B13", "binding signal": "0.0388 KA relative to UGCAUGU"}, {"binder": "B14", "binding signal": "0.0987 KA relative to UGCAUGU"}, {"binder": "B15", "binding signal": "0.114 KA relative to UGCAUGU"}, {"binder": "B16", "binding signal": "0.103 KA relative to UGCAUGU"}, {"binder": "B17", "binding signal": "0.0788 KA relative to UGCAUGU"}, {"binder": "B18", "binding signal": "0.0639 KA relative to UGCAUGU"}, {"binder": "B19", "binding signal": "0.091 KA relative to UGCAUGU"}, {"binder": "B20", "binding signal": "0.0661 KA relative to UGCAUGU"}, {"binder": "B21", "binding signal": "0.139 KA relative to UGCAUGU"}, {"binder": "B22", "binding signal": "0.0978 KA relative to UGCAUGU"}, {"binder": "B23", "binding signal": "0.278 KA relative to UGCAUGU"}, {"binder": "B24", "binding signal": "0.1 KA relative to UGCAUGU"}, {"binder": "B25", "binding signal": "0.0936 KA relative to UGCAUGU"}, {"binder": "B26", "binding signal": "0.107 KA relative to UGCAUGU"}, {"binder": "B27", "binding signal": "0.0866 KA relative to UGCAUGU"}, {"binder": "B28", "binding signal": "0.13 KA relative to UGCAUGU"}, {"binder": "B29", "binding signal": "0.0692 KA relative to UGCAUGU"}, {"binder": "B30", "binding signal": "0.0693 KA relative to UGCAUGU"}, {"binder": "B31", "binding signal": "0.168 KA relative to UGCAUGU"}]}]}
